# PubChem BioAssay AID1645882 (National Center for Advancing Translational Sciences (NCATS), 2021)
# Out of some 16,000 compounds screened, about 120 (0.75%) were called active. Roughly 4% stayed inconclusive and do not appear here. Calls come from the whole dose curve; as a rule, active = well fitted inhibition curve with a large enough effect; inconclusive = small, poorly fitted or top-dose-only effect; inactive = no such curve, though single readings can be large or run the other way. The list shows a part of the results.
# Target: Rap guanine nucleotide exchange factor 3 (Homo sapiens) (UniProt O95398)
# Test: Validation qHTS for antagonist of cAMP-regulated guanine nucleotide exchange factor 3 (EPAC1); note: nearly all actives have a fitted effect of over 75% in size
# Settings: EPAC1 Rap1B-BODIPY-GDP exchange, fluorescence; activity change, negative = inhibition: at the top concentration
# Text: Assay Provider (PI): Xiaodong Cheng Ph.D.
# The University of Texas Medical Branch, […], TX
# In multi-cellular eukaryotic organisms, the effects of cAMP are transduced by two ubiquitously-expressed intracellular cAMP receptors, the classic protein kinase A/cAMP-dependent protein kinase (PKA/cAPK) and the more recently discovered exchange protein directly activated by cAMP/cAMP-regulated guanine nucleotide exchange factor (EPAC/cAMP-GEF). Both PKA and EPAC are ubiquitously expressed in all tissues, and an increase in intracellular cAMP levels will lead to the activation of both PKA and EPAC. Therefore, careful dissections of the individual role and relative contribution of EPAC and PKA within the overall cAMP signaling in various model systems are critical for further elucidating the mechanism of cAMP signaling. To date no EPAC-specific antagonists and agonist, as well as isoform-specific agonists have been reported, and developing EPAC-specific pharmacological probes to determine the physiological functions that EPAC play in the overall cAMP-mediated signaling remains a major challenge within the research field. Furthermore, identified regulators of EPAC may lead to new mechanism-based therapeutic strategies specifically targeting the EPAC / cAMP-signaling components as EPAC has been implicated to play important roles in major human pathological conditions such as diabetes, heart disease, and cancer.
# This qHTS will be used to screen the Molecular Libraries Small Molecule Repository (MLSMR) as a concentration-titration series using the NCGC unique quantitative screening (qHTS) platform to find activators for EPAC1. In addition, this assay will also be used as a counterscreen for the EPAC2 qHTS. This fluorescent based assay is developed and validated for EPAC1 that measures exchange using EPAC effector Rap1 complex with BODIPY-GDP, a GDP analog with a tethered fluorophores. Activators are identified by monitoring the change in fluorescence signal as the exchanged free BODIPY-GDP has a reduced fluorescence compared to Rap1-bound BODIPY-GDP. Increase in signal (activation) is the desired outcome for the EPAC1 agonist while no activity in this assay is desired for the EPAC2 agonist counterscreen.
# [1] de Rooij, J., Zwartkruis, F. J., Verheijen, M. H., Cool, R. H., Nijman, S. M., Wittinghofer, A., and Bos, J.L. (1998) Nature 396, 474-477.
# Briefly, three uL of reagents (100 nM EPAC1, 250 nM RAP1B-BODIPY-GDP, 50 uM GDP) were dispensed into a 1536-well Greiner black solid-bottom medium binding assay plate. Controls and test compounds (23 nL) were transferred to the plate via a Kalypsys pin tool equipped with a 1536-pin array. The plates were centrifuged at 1,000 rpm for 15 seconds followed by 5 minute incubation at room temperature. The assay plates were read at 5 minute intervals for 30 minutes in the ViewLux plate reader using 480nm excitation and 540nm emission filters. The results were normalized to the […] positive control ATA and DMSO.
# Sequence of UniProt O95398 (O95398 whole entry, looked up): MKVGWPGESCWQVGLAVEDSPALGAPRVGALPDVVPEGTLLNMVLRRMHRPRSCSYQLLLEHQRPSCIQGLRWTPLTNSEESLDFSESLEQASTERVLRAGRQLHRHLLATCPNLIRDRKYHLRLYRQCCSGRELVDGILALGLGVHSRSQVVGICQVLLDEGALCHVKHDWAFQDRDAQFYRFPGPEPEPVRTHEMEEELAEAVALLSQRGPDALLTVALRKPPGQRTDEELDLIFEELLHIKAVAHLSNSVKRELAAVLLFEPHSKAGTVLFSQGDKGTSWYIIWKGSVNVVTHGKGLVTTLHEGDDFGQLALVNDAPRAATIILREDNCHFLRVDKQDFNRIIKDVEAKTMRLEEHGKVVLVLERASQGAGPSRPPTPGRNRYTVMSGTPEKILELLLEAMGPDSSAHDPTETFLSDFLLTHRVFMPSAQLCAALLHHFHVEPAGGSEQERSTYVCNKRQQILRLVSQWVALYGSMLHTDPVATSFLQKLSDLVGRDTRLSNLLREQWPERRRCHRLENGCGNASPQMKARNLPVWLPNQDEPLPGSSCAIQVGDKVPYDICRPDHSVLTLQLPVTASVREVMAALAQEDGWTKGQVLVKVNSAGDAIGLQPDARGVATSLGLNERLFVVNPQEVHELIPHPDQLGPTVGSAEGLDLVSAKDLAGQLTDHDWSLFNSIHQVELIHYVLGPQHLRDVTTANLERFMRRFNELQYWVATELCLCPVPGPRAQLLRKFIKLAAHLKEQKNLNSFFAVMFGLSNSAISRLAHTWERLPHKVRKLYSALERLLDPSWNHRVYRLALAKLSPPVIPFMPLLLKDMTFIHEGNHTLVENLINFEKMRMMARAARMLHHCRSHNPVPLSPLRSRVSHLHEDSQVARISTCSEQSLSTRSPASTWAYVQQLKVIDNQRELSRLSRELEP
row,Compound,"activity change, negative = inhibition"
1,COCC(=O)N1CCC2(CCCN(Cc3ccncc3)C2)CC1,inactive: 4.19%
2,CCCN1CCc2cc(O)cc3c2C1Cc1ccc(O)c(O)c1-3 (stereo not drawn),inactive: 20.9%
3,S=C=NCc1ccccc1,inactive: 11.3%
4,O=[N+]([O-])C(Br)(CO)CO,inactive: 5.33%
5,ClC(Cl)=C(c1ccc(Cl)cc1)c1ccc(Cl)cc1,inactive: 12.1%
6,CCOC(=O)C1C(C=C(C)C)C1(C)C (stereo not drawn),inactive: -7.22%
7,CCCCC/C=C\C/C=C\C/C=C\C=C\[C@H](CCCC(=O)O)OO,inactive: 16.4% [at 1.57 µM]
8,Oc1ccc2c3c1OC1C(O)CC[C@]4(O)C(C2)N(CC2CCC2)CC[C@]314 (stereo partly drawn),inactive: 279%
9,C[N+](C)(C)CCOC(=O)CBr,inactive
10,Cc1sc2ccccc2c1CC1=NCCN1,inactive: -6.59% [at 75.8 µM]
11,CC(=O)[C@H]1CC[C@H]2[C@@H]3CC[C@H]4C[C@](C)(O)CC[C@]4(C)[C@H]3CC[C@]12C,inactive
12,NC1=NC(=O)C(c2ccccc2)O1 (stereo not drawn),inactive: 18%
13,CCOC(=O)C1(c2ccccc2)CCN(CCC(C#N)(c2ccccc2)c2ccccc2)CC1,inactive
14,CN(C)CCc1ccc(O)cc1,inactive
15,CCN(CC)C(=O)N[C@@H]1C=C2c3cccc4[nH]cc(c34)C[C@@H]2N(C)C1,inactive: 23.6%
16,C/C=C1/CN2CC[C@]34C(=C(C=O)[C@@H]1C[C@H]23)Nc1c(O)cccc14,inactive: 21.4%
17,COc1cc(CC(C)N)c(OC)cc1I (stereo not drawn),inactive: -5.7% [at 75.8 µM]
18,CN1CCN(c2ncc3ncc(=O)n(C)c3n2)CC1,inactive: 13%
19,O=C(O)C1=CCCN(CCOC(c2ccc(C(F)(F)F)cc2)c2ccc(C(F)(F)F)cc2)C1,inactive: -21.4%
20,CCCCC/C=C\C/C=C\CCCCCCCC(=O)NCCO,inactive: -13.9% [at 15.3 µM]
21,O=C(CCl)c1ccc(Cl)cc1Cl,inactive
22,C#C[C@]1(O)CC[C@H]2[C@@H]3CCC4=CC(=O)CCC4=C3C=C[C@@]21CC,inactive: 15.8%
23,CCC1(c2ccccc2)C(=O)N(COC)C(=O)N(COC)C1=O,inactive: 12.4%

row,Compound,"activity change, negative = inhibition"
1,O=C1/C(=C\c2ccccc2)C[C@@]2(O)[C@H]3Cc4ccc(O)c5c4[C@@]2(CCN3CC2CC2)[C@@H]1O5,inactive: -10.4%
2,N[C@@H]1C[C@H]1c1ccccc1,inactive: 10.1%
3,CC(C)NCC(O)c1ccc([N+](=O)[O-])cc1 (stereo not drawn),inactive: 37.2%
4,CCC(Sc1ccccc1)C(=O)OC1CC2CCC(C1)N2C (stereo not drawn),inactive: 7.81%
5,COC(=O)[C@]1(C)CC[C@@]2(C)CC[C@@]3(C)C4=CC=C5C(=CC(=O)C(O)=C5C)[C@@]4(C)CC[C@@]3(C)C2C1 (stereo partly drawn),inactive: 16.5%
6,C[C@H](N)Cc1c[nH]c2ccc(O)cc12,inactive: 5.6%
7,CN1C[C@H](C(=O)N[C@]2(C)O[C@@]3(O)[C@@H]4CCCN4C(=O)[C@H](Cc4ccccc4)N3C2=O)C=C2c3cccc4[nH]cc(c34)C[C@H]21,inactive: 25.1%
8,CNc1ccccc1C(=O)O,inactive: 17.1%
9,CN(C(=O)Cc1ccc(Cl)c(Cl)c1)[C@@H](CN1CCCC1)c1cccc(OCC(=O)O)c1,inactive: 2.58%
10,COc1nn(CSP(=S)(OC)OC)c(=O)s1,inactive: 45.3% [at 320 µM]
11,NC(N)=Nc1ccc2[nH]c3c(c2c1)C[C@]1(O)[C@@H]2Cc4ccc(O)c5c4[C@]1(CCN2CC1CC1)[C@@H]3O5,inactive: 3.01%
12,CC(Cc1ccccc1)NCCn1cnc2c1c(=O)n(C)c(=O)n2C (stereo not drawn),inactive: 6.07% [at 320 µM]
13,O[C@H]1[C@H](O)[C@@H](O)CN2CC[C@H](O)[C@H]12,inactive: 20.1% [at 320 µM]
14,CC1(C)C2C[C@@H](O)[C@]3(C)C(CC[C@@]4(C)[C@H](c5ccoc5)C[C@H]5O[C@]543)[C@@]2(C)[C@@H](O)C[C@H]1O (stereo partly drawn),inactive: 16.8%
15,CC(C)NC(=O)N1CC[C@@]2(CCCNC2)C1,inactive: 18.9%
16,C[C@]12CCC3C(CC[C@]4(O)C[C@@H](O)CC[C@]34C=O)[C@@]1(O)CC[C@@H]2C1=CC(=O)OC1 (stereo partly drawn),inactive: 13.9%
17,CN1C[C@@H](CO)C=C2c3cccc4[nH]cc(c34)CC21 (stereo partly drawn),inactive: 17.8%
18,C=CC(=O)NCNC(=O)C=C,inactive: 25.5% [at 320 µM]
19,O=C(Oc1ccccc1)N1CCC2(CCCN(Cc3nccs3)C2)CC1,inactive: 15.6%
20,Cn1cccc1-c1cccnc1,inactive: 38%
21,CC(=O)OC1CC2C(C)(C)C(O)C=C[C@@]2(C)C2CC[C@]3(C)C(=CC(=O)OC3c3ccoc3)[C@]12C (stereo partly drawn),inactive: 0.723%
22,CCOP(=S)(OCC)O/N=C(\C#N)c1ccccc1,inactive: 14.1%
23,C=CCN1CC[C@]23c4c5ccc(O)c4O[C@@H]2C(=O)CC[C@]3(O)[C@H]1C5,inactive: 1.3%

row,Compound,"activity change, negative = inhibition"
1,C=C(C)[C@H]1CN[C@H](C(=O)O)[C@@H]1CC(=O)O,inactive: 13.3%
2,O=C1Nc2ccc(Cl)cc2C(c2ccccc2Cl)=NC1O (stereo not drawn),inactive: 12.4%
3,CC(=O)OC1(c2ccccc2)CCN(CCc2ccccc2)CC1,inactive: 27% [at 320 µM]
4,Clc1cncc(N2CCNCC2)n1,inactive
5,CCN(CC)CCc1c[nH]c2ccccc12,inactive: 26.6% [at 320 µM]
6,COC1CC(=C(c2cccs2)c2cccs2)C[N+](C)(C)C1 (stereo not drawn),inactive: 9.46%
7,CC(C)(C)c1o[nH]c(=O)c1C[C@H](N)C(=O)O,inactive: 8.11%
8,CN1CCN(C(=O)O[C@H]2c3nccnc3C(=O)N2c2ccc(Cl)cn2)CC1,inactive: 11.5%
9,Oc1ccc2[nH]cc(CCCCN3CC=C(c4ccccc4)CC3)c2c1,inactive: 11.1%
10,O=C(Cc1ccc(Cl)c(Cl)c1)N1CCCC[C@H]1CN1CCCC1,inactive: 2.89%
11,NC(=O)c1cc([N+](=O)[O-])cc([N+](=O)[O-])c1,inactive: 11.1%
12,COc1ccc2c(c1O)-c1c(OC)c(OC)cc3c1[C@H](C2)N(C)CC3,inactive: 12.6%
13,O=CN1CCCCC1C1CC[C@H]2CCCCN2C1 (stereo partly drawn),inactive: 10.6%
14,c1ccc2sc(C3(N4CCCC4)CCCCC3)cc2c1,inactive: 23.3%
15,O=C1CC[C@@]2(O)[C@H]3Cc4ccc(O)c5c4[C@@]2(CCN3CC2CC2)[C@H]1O5,inactive: 18.6%
16,O=C(CC[N+](=O)[O-])OCC1OC(O)C(OC(=O)CC[N+](=O)[O-])[C@@H](OC(=O)CC[N+](=O)[O-])C1OC(=O)CC[N+](=O)[O-] (stereo partly drawn),inactive: 6.61%
17,CC1(C)C(O)CC(O)[C@]2(C)C1CC(O)[C@]1(C)C2CC[C@@]2(C)C(c3ccoc3)CC3OC312 (stereo partly drawn),inactive: -27.1%
18,Cn1c(CCCC(=O)O)nc2cc(N(CCCl)CCCl)ccc21,inactive: 17.5%
19,COC1=CC=C2[C@H]3Cc4ccc(OC)c5c4[C@@]2(CCN3C)[C@H]1O5,inactive
20,CN1CCc2cc(O)cc3c2C1Cc1ccc(O)c(O)c1-3 (stereo not drawn),inactive: 39.7%
21,NC(CP(=O)(O)O)C(=O)O (stereo not drawn),inactive
22,C=CCN1CC[C@]23c4c5ccc(O)c4O[C@H]2[C@@H](O)C=C[C@H]3[C@H]1C5,inactive: 22.6%
